These results are taken from the supplement of paper PMC3656093.

Values joined by “and” are separate entries in the source; they are usually repeats but may differ in a detail not shown here. Identical values can stand only once. ± gives the standard deviation of the averaged measurements. Over roughly 1,900 compounds, “CD40L-induced NF-kB luciferase activity, plate-corrected, relative to DMSO (0) and IKK inhibitor VII (-100) controls” has its median near 0.032; the lowest 2% begin near -26. The list shows a part of the results.

The test system of the test is BL2-NFkB-Luc. Nature of the test: CD40L-induced NF-kB luciferase activity, plate-corrected, relative to DMSO (0) and IKK inhibitor VII (-100) controls (% normalized activity); higher = more NF-kB reporter activity (less inhibition). As to conditions: 9.4 µM; stimulus: tCD40L 64 ng/ml; 4.5 h. On the procedure:
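BL2 B cells with a stable NF-kB response-element luciferase reporter (BL2-NFkB-Luc), 384-well. Cells were pre-incubated with compound at 9.4 uM for 1 h at 37 C, then stimulated with 64 ng/ml trimerized CD40L for 4.5 h; luciferase was read with Steady-Glo. Signal was normalised per plate in Genedata (median DMSO neutral control = 0, median IKK inhibitor VII at 50 uM = -100) with Assay Median plate-pattern correction; duplicate plates.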
Regarding `CC(O)Cn1cnc2c1c(=O)n(C)c(=O)n2C` (stereo not given), the “CD40L-induced NF-kB luciferase activity” value turned out to be 0.9 ± 3.9.
Turning to `COc1cc(CNCCc2ccccc2F)ccc1OCC(=O)N1CCCCC1`, the “CD40L-induced NF-kB luciferase activity” value was -0.135 ± 0.12.
In the case of `Cn1c(=O)[nH]c(=O)c2c1nc(Br)n2CCCO`, the “CD40L-induced NF-kB luciferase activity” value was 3.58 ± 0.86.
For `N/C(=N\OC(=O)c1ccc(Br)o1)c1ccccn1`, the “CD40L-induced NF-kB luciferase activity” value came out at 13.5 ± 3.3.
Turning to `COc1cccc(OC2OC3COC(C)(C)OC3C(O)C2NC(C)=O)c1` (stereo not given), the “CD40L-induced NF-kB luciferase activity” value is -2.18 ± 2.7.
On to `O=C(Nc1cccc(Oc2c(F)c(F)c(F)c(F)c2F)c1)N1C[C@@H]2C[C@@H](C1)c1cccc(=O)n1C2`, for which the “CD40L-induced NF-kB luciferase activity” value is -0.339 ± 1.9.
On to `COC(=O)c1ccc(=O)n(Cc2ccco2)c1`, for which the “CD40L-induced NF-kB luciferase activity” value was -0.352 ± 2.6.
On to `CC(C)C[C@H](NC(=O)[C@@H]1Cc2ccccc2CN1C(=O)OC(C)(C)C)C(=O)NCC1CCC(C(=O)O)CC1` (stereo not given in full), for which the “CD40L-induced NF-kB luciferase activity” value was -1.28 ± 0.76.
Then `COc1ccc(-c2noc(CCc3ccccc3)n2)cc1`, with 58.9 ± 6.4.
With `COc1cc2c(cc1NCc1ccc3c(c1)OCO3)oc1ccccc12`, the “CD40L-induced NF-kB luciferase activity” value was found to be 44.5 ± 8.7.
For the compound `C=C(C)[C@@H]1CC=C(CN2CCC(N3CCC(C(=O)N4CCCC4)CC3)CC2)CC1`, the “CD40L-induced NF-kB luciferase activity” value was -5.18 ± 1.8.
As for `O=C(CCNNC(=O)c1ccncc1)NCc1ccccc1`, the “CD40L-induced NF-kB luciferase activity” value is -24.8 ± 30.
Take `CCOC(=O)n1c(=O)oc2ccccc21`: the “CD40L-induced NF-kB luciferase activity” value is -1.93 ± 0.16.
With `CCCn1c(=O)c2[nH]c(C3CCCC3)nc2n(CCC)c1=O`, the “CD40L-induced NF-kB luciferase activity” value was -11.9 ± 7.
In the case of `Cc1nc2ccccn2c(=O)c1CCN1CCC(C(=O)c2ccc(F)cc2)CC1`, the “CD40L-induced NF-kB luciferase activity” value was -14.7 ± 8.9.
For the compound `NC(=O)c1cnccn1`, the “CD40L-induced NF-kB luciferase activity” value is -7.55 ± 1.
On to `O=c1cc(-c2ccc3c(c2)OCCO3)oc2ccc(Cl)cc12`, for which the “CD40L-induced NF-kB luciferase activity” value is 75.9 ± 14.
As for `COc1cc(C(=O)Nc2cccc(-c3nnc(-c4ccco4)o3)c2)ccc1OC(C)=O`, the “CD40L-induced NF-kB luciferase activity” value turned out to be 15.1 ± 1.5.
As for `CCNC(=S)Nc1ccc(OC(F)(F)F)cc1`, the “CD40L-induced NF-kB luciferase activity” value is 3.97 ± 0.15.
With `NC(N)=NN=Cc1cccc(Cl)c1Cl`, the “CD40L-induced NF-kB luciferase activity” value came to 0.0493 ± 1.3.
Consider `O=C(NCc1ccc(N2CCCC2=O)cc1)c1ccc(F)cc1`, for which the “CD40L-induced NF-kB luciferase activity” value is 2.23 ± 0.89.
In the case of `CCCCCCCC(=O)OCC(O)CO` (stereo not given), the “CD40L-induced NF-kB luciferase activity” value is -1.11 ± 1.9.
Then `CC(=O)O[C@H]1CC[C@H]2[C@@H]3CCc4cc(O)ccc4[C@H]3CC[C@]12C`, with -3.39 ± 3.8; and `OC12CCCCC1C(c1ccc3c(c1)OCO3)N(Cc1cccc(F)c1)CC2` (stereo not given), with 3.97 ± 0.1; and `CC12CCC(C(=O)NNc3ccccc3)(C(=O)C1=O)C2(C)C` (stereo not given), with 0.924 ± 0.68.
With `O=c1n(CCCN2CCN(c3cccc(Cl)c3)CC2)nc2ccccn12`, the “CD40L-induced NF-kB luciferase activity” value worked out at 4.1 ± 3.1.
For the compound `CC(=O)NCCCC(=O)NC(CCC(=O)OCc1ccccc1)C(=O)OCc1ccccc1` (stereo not given), the “CD40L-induced NF-kB luciferase activity” value amounted to 0.267 ± 6.9.
Take `CC1(C)S[C@@H]2[C@H](NC(=O)[C@H](N)c3ccccc3)C(=O)N2[C@H]1C(=O)O`: the “CD40L-induced NF-kB luciferase activity” value was -3.02 and -6.95.
Then `C[C@@H]1C[C@H](Nc2ccccc2)c2ccccc2N1C(=O)c1cccnc1`, with -8.09 ± 4.7.
For `CCN(CC)c1ccc(C2=NNC(=O)CC2C)cc1[N+](=O)[O-]` (stereo not given), the “CD40L-induced NF-kB luciferase activity” value was 2.41 ± 5.
For `COc1ccc2cc([C@H](C)C(=O)O)ccc2c1`, the “CD40L-induced NF-kB luciferase activity” value amounted to 5.64 ± 2.2.
Then `C/C=C(/C(=C/C)c1ccc(O)cc1)c1ccc(O)cc1`, with 0.512 ± 0.3; and `Cc1ncc([N+](=O)[O-])n1CC(C)O` (stereo not given), with -14.5 ± 13; and `COc1ccc(-c2cc3cc(OC)c(OC)cc3c(C)n2)cc1`, with 29.9 ± 5.4.
As to `O=C(Nc1ccc(Oc2c(F)c(F)c(F)c(F)c2F)cc1)OC1CCN2Cc3ccccc3N=C12` (stereo not given), the “CD40L-induced NF-kB luciferase activity” value was -15.2 ± 2.6.
In the case of `CCOc1ccc(C(=O)NCC2(c3ccccc3)CCOCC2)cc1`, the “CD40L-induced NF-kB luciferase activity” value stood at 2.68 ± 0.27.
The figure for `CCOC(=O)C1CCCN(Cc2nc(Cc3cccc(F)c3)no2)C1` (stereo not given) is -0.168 ± 10; for `COc1ccc(-c2[nH]ncc2CN(CCO)Cc2cccs2)c(F)c1` it is -8.47 ± 4.1; for `N#C/C(=C\c1ccc(O)c(O)c1)C(=O)NCCCc1ccccc1` it is -21.1 ± 0.37.
As to `O=P(c1ccccc1)(c1ccccc1)c1nc(-c2ccc(Cl)cc2)oc1N1CCOCC1`, the “CD40L-induced NF-kB luciferase activity” value was -1.72 ± 0.6.
For `C/C(NC(=O)c1cccs1)=C1\C(=O)C[C@@H]2[C@H]1C2(C)C`, the “CD40L-induced NF-kB luciferase activity” value worked out at 34.6 ± 1.7.
Consider `CCNCCC(CCC(C)C)c1ccc2c(c1)OCO2` (stereo not given), for which the “CD40L-induced NF-kB luciferase activity” value is 0.732 ± 3.2.
Take `O=C(O)c1ccccc1O`: the “CD40L-induced NF-kB luciferase activity” value was -11.6 ± 13.
As for `CN1CCCN(C(c2ccccc2)c2ccc(Cl)cc2)CC1` (stereo not given), the “CD40L-induced NF-kB luciferase activity” value is 4.06 ± 4.2.
On to `Nc1ccc(N)c(C(=O)O)c1`, for which the “CD40L-induced NF-kB luciferase activity” value is 3.1 ± 4.4.
Turning to `CC(C)NC(=O)C1(c2ccccc2)CCOCC1`, the “CD40L-induced NF-kB luciferase activity” value is 2.39 ± 4.5.
Turning to `CC(C)OC(=O)C(C)(C)Oc1ccc(C(=O)c2ccc(Cl)cc2)cc1`, the “CD40L-induced NF-kB luciferase activity” value came to 2.91 ± 1.5.
In the case of `COC(=O)C1[C@H]2C(=O)N(Cc3cccs3)C[C@]23C=C[C@H]1O3` (stereo not given in full), the “CD40L-induced NF-kB luciferase activity” value was -7.63 ± 0.63.
`COc1cc(C2C(C(C)=O)=C(O)C(=O)N2c2ccc(C)cc2)ccc1O` (stereo not given): the “CD40L-induced NF-kB luciferase activity” value was -9.3 ± 24.
Take `O=C(Nc1ccccc1)OCC1CCCN2CCCCC12` (stereo not given): the “CD40L-induced NF-kB luciferase activity” value was -0.838 ± 2.4.
As for `COc1ccc2cc(-c3nc4ccccc4n3C)c(=O)oc2c1`, the “CD40L-induced NF-kB luciferase activity” value was 59.7 ± 7.4.
In the case of `CC1(C)NC(C(=O)O)Cc2c1[nH]c1ccccc21` (stereo not given), the “CD40L-induced NF-kB luciferase activity” value was -5.47 ± 1.3.
For `COC(=O)CCC(=O)CN`, the “CD40L-induced NF-kB luciferase activity” value was -0.0616 ± 1.1.
The figure for `CC(C)=CCC/C(C)=C/CCC(C)=NO` is 2.33 ± 4.2.
In the case of `CCc1cc(=O)oc2cc(C)c(CN3CCCC(C)C3)c(O)c12` (stereo not given), the “CD40L-induced NF-kB luciferase activity” value came to 3.18 ± 1.
As to `CC(=O)c1c(C)[nH]c(C(=O)OCc2ccccc2)c1C`, the “CD40L-induced NF-kB luciferase activity” value came out at 3.33 ± 3.2.
Consider `CC(=NNC(=O)c1ccccc1[N+](=O)[O-])c1ccc(Br)s1`, for which the “CD40L-induced NF-kB luciferase activity” value worked out at 0.482 ± 5.1.
`CN(C)CCOc1ccc(Cl)cc1C(C)(C)C`: the “CD40L-induced NF-kB luciferase activity” value was 6.623 ± 0.023.
The figure for `CCN1C(=O)C(CC(=O)Nc2ccc(F)cc2)N(Cc2ccc3c(c2)OCO3)C1=S` (stereo not given) is -5.89 ± 7.1.
As for `COc1ccccc1/C=C/C(=O)c1c2c(c(C)[nH]c1=O)CCCC2`, the “CD40L-induced NF-kB luciferase activity” value was -23.8 ± 4.3.
Turning to `CC(=O)c1c(C)c(C)c2n1CCn1c(C)ccc1-2`, the “CD40L-induced NF-kB luciferase activity” value stood at 2.8 ± 7.2.
Regarding `O=C(CCc1ccccc1)Nc1ccccc1C(F)(F)F`, the “CD40L-induced NF-kB luciferase activity” value is 10.8 ± 2.8.
The figure for `O=C(OCC(O)C(O)COC(=O)c1ccccc1)c1ccccc1` (stereo not given) is -7.26 ± 8.9; for `CC(=O)N[C@@H](CS)C(=O)O` it is -0.851 ± 1.
For the compound `O=C(CNC(=O)OCc1ccccc1)NC1CCCCCC1`, the “CD40L-induced NF-kB luciferase activity” value was -0.331 ± 0.99.
For `Cc1ccc(C2CC(c3cccs3)=NN2C(=O)c2ccco2)o1` (stereo not given), the “CD40L-induced NF-kB luciferase activity” value is -7.33 ± 3.4.
Take `COc1cc(CNc2ccc(C)c(C)c2)cc(OC)c1OC`: the “CD40L-induced NF-kB luciferase activity” value was -2.76 ± 2.9.
`COc1ccc(C(=O)O)cc1F`: the “CD40L-induced NF-kB luciferase activity” value is -3.87 ± 2.9.
For the compound `COc1cccc(OCc2cc(C3Nc4ccccc4C(=O)N3Cc3ccco3)ccc2OC)c1` (stereo not given), the “CD40L-induced NF-kB luciferase activity” value was determined as 4.63 ± 1.6.
On to `Cc1nc(C2CC(=O)OC23CCCCC3)cs1` (stereo not given), for which the “CD40L-induced NF-kB luciferase activity” value is -4.38 ± 1.9.
The figure for `CC[C@H](C)C(=O)O[C@H]1C[C@@H](C)C=C2C=C[C@H](C)[C@H](CC[C@@H]3C[C@@H](O)CC(=O)O3)[C@H]21` is 5.85 ± 6.6; for `O=C(CCCCC(=O)NC1CCCC1)NC1CCCC1` it is 1.99 ± 7.1; for `CC1(C)CC(=O)C(C2(O)C(=O)Nc3ccccc32)CO1` (stereo not given) it is 0.393 ± 0.46.
On to `COc1c2c(nc3occc13)C(CC=C(C)C)(OC)C(O)CC2` (stereo not given), for which the “CD40L-induced NF-kB luciferase activity” value came to 2.58 ± 7.2.
In the case of `CC1(C)CC(CC(=O)O)(c2ccc(Cl)cc2)CCO1` (stereo not given), the “CD40L-induced NF-kB luciferase activity” value was determined as 5.5 ± 0.88.
